Measurements published in PubChem BioAssay AID624417 (National Center for Advancing Translational Sciences (NCATS), 2012).
In all, about 410,000 compounds went through this assay and about 6,400 (1.6%) were called active. Inconclusive means that the source gave no clear call. Such entries were picked first, then a sample of the others. Calls follow the shape of the dose curve; as a rule, active = well fitted inhibition curve with a large enough effect; inconclusive = small, poorly fitted or top-dose-only effect; inactive = no such curve, though single readings can be large or run the other way. No potency is given beside an inconclusive call; the fits are too rough.

Each compound was assayed against Glucagon-like peptide 1 receptor (Homo sapiens) (UniProt P43220) (assay: qHTS of GLP-1 Receptor Inverse Agonists (Inhibition Mode)). Conditions: HEK293 GLP-1R CRE-luciferase, luminescence, 24 h, GLP-1R form is constitutively active; series mostly up to 38.3 µM.
Chain of UniProt P43220 (P43220 whole entry, looked up): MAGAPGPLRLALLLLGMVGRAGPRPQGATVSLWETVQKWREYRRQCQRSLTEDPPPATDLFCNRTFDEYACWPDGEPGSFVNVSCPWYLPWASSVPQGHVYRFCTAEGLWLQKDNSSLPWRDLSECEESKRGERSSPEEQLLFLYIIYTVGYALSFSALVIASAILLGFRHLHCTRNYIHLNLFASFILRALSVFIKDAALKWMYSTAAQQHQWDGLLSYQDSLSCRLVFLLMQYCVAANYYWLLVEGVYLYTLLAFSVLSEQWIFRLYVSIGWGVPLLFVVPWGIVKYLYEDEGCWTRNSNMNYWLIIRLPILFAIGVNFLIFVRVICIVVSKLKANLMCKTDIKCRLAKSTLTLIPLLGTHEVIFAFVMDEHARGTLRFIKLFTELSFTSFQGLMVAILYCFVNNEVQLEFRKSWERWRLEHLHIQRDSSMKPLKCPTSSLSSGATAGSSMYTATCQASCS
How it was run: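 Inverse agonists were sought by their lowering of basal cAMP reporter luciferase output in HEK293 cells stably carrying constitutively active human GLP-1R, after 24 h compound treatment.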
Also: nearly all actives have a fitted effect of over 55% in size.
Potency is read from the fitted curve at half-maximal effect; tags tell the direction and shape of the fitted curve.

Structure (SMILES) | Potency
O=C(c1ccc2c(c1)N(Cc1cccc(Cl)c1)C(=O)c1ccccc1S2=O)N1CCN(c2cccc(C(F)(F)F)c2)CC1 (stereo unspecified) | inconclusive [inhibitor, single point]
COc1cccc(CNC(=O)CN(C)S(=O)(=O)c2ccc(Br)s2)c1 | inconclusive [inhibitor, single point]
O=C(CSc1nc2cc(S(=O)(=O)N3CCOCC3)ccc2o1)Nc1c(F)cccc1F | inconclusive [inhibitor, full curve, poor fit]
CCOc1ccc(S(=O)(=O)N(C)CC(=O)NCc2ccc3c(c2)OCO3)cc1 | inconclusive [inhibitor, single point]
COc1ccccc1CNC(=O)CCn1cnc2ccccc2c1=O | inactive
CNc1ccccc1NC(=O)CCn1c(=S)oc2ccccc21 | inconclusive [inhibitor, partial curve, poor fit]
Cc1cccc(C(=O)N2CCN(C(=O)c3cccc(C)c3)C(C)C2)c1 (stereo unspecified) | inconclusive [inhibitor, full curve]
OCCCCNCc1cc(Br)ccc1OCc1ccccc1F | inconclusive [inhibitor, partial curve, poor fit]
O=C(NCc1ccc(Cl)cc1)C1CCN(S(=O)(=O)c2ccccc2)CC1 | inconclusive [inhibitor, single point]
COc1ccc(OC)c(Nc2cc(C)nc3ccc(C)cc23)c1 | inconclusive [inhibitor, full curve, poor fit]
COc1ccc2c(c1)N(C)/C(=C/c1cccc[n+]1C)S2 | inconclusive [inhibitor, partial curve, poor fit]
Oc1ccc(-c2nc3ccc4ccccc4c3c3c2CCC3)cc1O | active: 3.98 µM
Cc1ccc(S(=O)(=O)N2CCOC2CNC(=O)C(=O)NCc2ccccc2)cc1 (stereo unspecified) | inconclusive [inhibitor, full curve, poor fit]
O=C(c1cc(COc2c(F)cccc2F)on1)N(Cc1ccccc1)CC1CC1 | inconclusive [inhibitor, single point]
CCOC(=O)c1c(NC(=O)C(C)OC(=O)C2=COCCO2)sc2c1CCCC2 (stereo unspecified) | inconclusive [inhibitor, single point]
CCC1Sc2ccccc2N(CC(=O)NCc2ccc3c(c2)OCO3)C1=O (stereo unspecified) | inconclusive [inhibitor, partial curve, poor fit]
CNC(=O)[C@@H]1C[C@H]1[C@@H](NC(=O)OCc1ccccc1)c1ccccc1 | inactive
CC(=O)c1ccc(NC(=O)Cn2ncc3c4ccccc4n(Cc4ccccc4)c3c2=O)cc1 | inactive
CCOc1ncccc1C(=O)OCC(=O)Nc1ccc2c(c1)OCCO2 | inactive
CC(C)(C)NC(=O)N1CCCN(c2ccc(C(F)(F)F)cn2)CC1 | inconclusive [inhibitor, single point]
O=C1Nc2ccc(Br)cc2C12NNc1ccccc1O2 (stereo unspecified) | inconclusive [inhibitor, single point]

Structure (SMILES) | Potency
COc1ccc(C(=O)NC(=S)Nc2ccc(S(N)(=O)=O)cc2)cc1 | inactive
NC(=O)CC(NC(=O)Cc1ccc(Cl)cc1)c1ccc(NCC2CC2)c([N+](=O)[O-])c1 (stereo unspecified) | inconclusive [inhibitor, single point]
N#CC1=C(N)Oc2cc(N)ccc2C1C1CCCCC1 (stereo unspecified) | inconclusive [inhibitor, partial curve, poor fit]
Cc1ccc(NC(=S)Nc2ccc(OC(F)F)c(Cl)c2)cc1Cl | inconclusive [inhibitor, single point]
COc1ccc(CN(C(=S)Nc2ccccc2)C2CC(=O)N(c3ccccc3)C2=O)cc1 (stereo unspecified) | inconclusive [inhibitor, partial curve]
CCOc1cc(CNCCSc2nnnn2C)cc(Br)c1OCc1ccc(F)cc1 | inconclusive [inhibitor, full curve, poor fit]
Cc1ccc(OCCn2cc(C(=O)C3CCCCC3)c3ccccc32)cc1 | inconclusive [inhibitor, partial curve, poor fit]
CCC(C)C(=O)Nc1nc(-c2ccc3c(c2)NC(=O)CO3)cs1 (stereo unspecified) | inconclusive [inhibitor, single point]
COc1ccc(C)cc1Nc1nc(-c2c(C)[nH]c3ccccc23)cs1 | inconclusive [inhibitor, single point]
CCSc1nnc(NC(=O)c2ccccn2)s1 | inconclusive [inhibitor, partial curve, poor fit]
O=C(Oc1ccccc1C(=O)Oc1ccccc1)c1cccnc1 | inconclusive [inhibitor, single point]
CCOC(=O)C1(CC2CC2)CCN(C(=O)c2cc(C)nc3ccc(CC)cc23)CC1 | inconclusive [inhibitor, single point]
Cc1ccc(CN2C(=O)CCC2C(=O)NCc2ccc3c(c2)OCO3)cc1 (stereo unspecified) | inactive
O=C(CCc1ccccc1)NC1C2CC3CC(C2)CC1C3 (stereo unspecified) | inconclusive [inhibitor, partial curve, poor fit]
O=C(c1ccc(Cl)cc1)N1CCC(C(=O)N2CCCc3ccccc32)CC1 | inactive
C#CCOCCOCCOCCNc1nc(N2CCN(C(=O)CCCCCCCCCCNC(=O)[C@H]([C@@H](C)CC)n3cc(CCCCN=C(N)N)nn3)CC2)nc(N2CCN(C(=O)CCCCCCCCCCNC(=O)[C@H](CO)n3cc(CCCSC)nn3)CC2)n1 | inconclusive [inhibitor, single point]
CCOC(=O)c1ccc(NC(=O)CC2C(=O)N(c3cccc(OC)c3)C(=O)N2C2CCCCC2)cc1 (stereo unspecified) | inconclusive [inhibitor, partial curve, poor fit]
COc1nc(N2CCCCCC2)nc(N2CCCCCC2)n1 | inconclusive [inhibitor, single point]
CCOc1cc(C(=S)N2CCOCC2)ccc1OS(=O)(=O)c1ccccc1 | inconclusive [inhibitor, partial curve]
O=C(COc1ccc(Cl)cc1)Nc1ncc([N+](=O)[O-])s1 | inconclusive [inhibitor, partial curve, poor fit]
Cc1c(CC(=O)NCC(=O)N[C@H](Cc2ccccc2)C(=O)O)c(=O)oc2cc(O)ccc12 | inactive

Structure (SMILES) | Potency
COc1cn(CC(=O)Nc2ccc(F)cc2)c(CN2CCCCC2)cc1=O | inactive
CCN1CCN(c2cc(C)c3cc(NC(=O)c4cccc(C(F)(F)F)c4)ccc3n2)CC1 | inconclusive [inhibitor, single point]
O=C(COC(=O)Cc1c(Cl)cccc1Cl)Nc1ccc(OC(F)(F)F)cc1 | inconclusive [inhibitor, full curve, poor fit]
Cc1ncc([N+](=O)[O-])n1CCOC(=O)NC(NCc1ccccc1)C(Cl)(Cl)Cl (stereo unspecified) | inconclusive [inhibitor, partial curve, poor fit]
COC(=O)C1=C(C)N(Cc2ccccc2)C(=NCC(C)C)N[C@H]1c1ccccc1 | inconclusive [inhibitor, single point]
Cc1cccc(Cn2c(CN3CCC(C(=O)NCc4cccnc4)CC3)cc3ccccc32)c1 | inconclusive [inhibitor, single point]
CCCOc1cccc(-c2cc(C(=O)N/N=C/c3ccccn3)c3ccccc3n2)c1 | inconclusive [inhibitor, full curve, poor fit]
O=C1NC(c2cccc3ccccc23)Nc2ccccc21 (stereo unspecified) | inconclusive [inhibitor, full curve, poor fit]
COc1ccc(C(=O)OCC(=O)NC23CC4CC(CC(C4)C2)C3)c(OC)c1OC | inconclusive [inhibitor, full curve, poor fit]
COc1cc(C(=O)N2CCc3ccccc32)cc(OC)c1OC | inactive
CC(NC(=O)c1ccc(OC2CCN(Cc3ccccn3)CC2)cc1)c1ccccc1 (stereo unspecified) | inconclusive [inhibitor, partial curve, poor fit]
CC1=C(C(=O)Nc2ccc([N+](=O)[O-])cc2)C(c2cccc(C(F)(F)F)c2)NC(=S)N1c1ccccc1 (stereo unspecified) | inconclusive [inhibitor, single point]
Cc1cc(C)cc(NC(=O)C2CCN(S(=O)(=O)c3ccc4c(c3)NC(=O)C(C)S4)CC2)c1 (stereo unspecified) | inconclusive [inhibitor, partial curve, poor fit]
CCS(=O)(=O)c1nc(S(=O)(=O)c2ccc(Cl)cc2)c(N2CCc3ccccc3C2)s1 | inconclusive [inhibitor, partial curve, poor fit]
CN(CCOc1ccccc1)CC(O)COCc1ccccc1F (stereo unspecified) | inconclusive [inhibitor, partial curve, poor fit]
O=C(N=c1ccn(-c2nc3ccccc3nc2NS(=O)(=O)c2ccccc2)cc1)c1ccccc1Cl | inactive
COCCCNS(=O)(=O)c1ccc(Cl)c(C(F)(F)F)c1 | inconclusive [inhibitor, single point]
COc1ccc(Nc2nc(N)nc(CSC(=S)N3CCCCC3C)n2)cc1 (stereo unspecified) | inconclusive [inhibitor, partial curve, poor fit]
COc1ccc(C(=O)CC(=O)C(=O)Nc2ccc(OC)c(Cl)c2)cc1 | inactive
